Reference: patent publication US20090136503A1

Target: TRAIL-R1 and/or TRAIL-R2 on human cancer cells
Assay: cell-based or functional assay

B1: Human chimeric CTB003 (mouse-human chimeric antibody) (antibody, human IgG1)
light: DIQMTQSSSSFSVSLGDRVTITCKASEDIYNRLAWYQQKPGNAPRLLISGATSLETGVPSRFSGSGSGKDYTLSITSLQTEDVATYYCQQYWSTPLTFGAGTKLELKRAVAAPSVDIFPPSDEQLKSGTASVVCLLNNFYPREAKVQWKVDNALQSGNSQESVTEQDSKDSTYSLSSTLTLSKADYEKHKVYACEVTHQGLSSPVTKSFNRGEC
heavy: EVHLVESGGGLVRPGGSLKLSCAASGFAFSSYDMSWVRQTPEKRLEWVAYISDGGGITYYPDTMKGRFTISRDNAKNTLSLQMSSLKSEDTAMYYCARHITMVVGPFAYWGQGTLVTVSAASTKGPSVFPLAPCSRSTSGGTAALGCLVKDYFPEPVTVSWNSGALTSGVHTFPAVLQSSGLYSLSSVVTVPSSSLGTQTYICNVNHKPSNTKVDKRV[human IgG1 Fc with A327G V412M (EU numbers) omitted here]
**Q.** Which results are given for B1?
**A.** IC50 (ng/ml), killing of Carov 3 cells, ATPLite cell viability: 22.5 ng/mL; IC50 (ng/ml), killing of Colo205 cells, ATPLite cell viability: 6.6 ng/mL; IC50 (ng/ml), killing of Du145 cells, ATPLite cell viability: 39.8 ng/mL; IC50 (ng/ml), killing of H-2122 cells, ATPLite cell viability: 29.1 ng/mL; IC50 (ng/ml), killing of MDA231 cells, ATPLite cell viability: 4.2 ng/mL; IC50 (ng/ml), killing of MIAcap cells, ATPLite cell viability: 12.5 ng/mL
